The inconclusive results got no clear call from the source; some entries with a clear call stand among them for comparison. For part of these data: Potencies of inconclusive entries are left out as doubtful fits. Active and inactive are the calls of the source. Unless noted, calls follow the shape of the dose curve; as a rule, active = well fitted curve in the direction sought with a large enough effect in the repeat runs; inconclusive = weak or mixed curves; inactive = no such curve, though single readings can be large; an effect the other way counts as inactive or inconclusive.
What was measured:
[1] = qHTS assay to identify small molecule antagonists of the estrogen related receptor (ERR) signaling pathway (AID 1224819; also: nearly all actives have a fitted effect of over 50% in size; also: potency is read from the fitted curve at half-maximal effect;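 as to activity change, negative = inhibition: luminescence from an ERR-driven luciferase reporter measured with One-Glo reagent; % is scaled to controls: 0 for no effect and ±100 for the full control effect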)
Summary of the method: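 Seed ERR cells 2,000/well; rest 6 h at 37 C/5% CO2; pin compounds in DMSO; incubate 18 h at 37 C; add One-Glo; wait 30 min at room temperature; measure luminescence.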

[2] = qHTS assay to identify small molecule antagonists of the estrogen related receptor signaling pathway with the pleiotropic PPARgamma coactivator (PGC) cell viability counter screen (AID 1224822; also: potency is read from the fitted curve at half-maximal effect;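 also: viability read after 17.5 h compound exposure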; as to viability change, negative = cytotoxic: % is scaled to controls: 0 for no effect and ±100 for the full control effect)
Summary of the method: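 17.5 h compound treatment of PGC/ERR cells at 37 C; readout CellTiter-Fluor fluorescence; run alongside the PGC/ERR antagonist screen to flag cytotoxic compounds.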

[3] = qHTS assay for small molecule disruptors of the mitochondrial membrane potential (AID 720635); details: HepG2 mitochondrial membrane potential, Mito-MPS dye ratio; ratio activity, negative = MMP loss: at 83.2 µM (top of the series) unless noted; also: potency is read from the fitted curve at half-maximal effect
Summary of the method: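 Mitochondrial membrane potential tracked with Mito-MPS dye, red aggregates (ex 540/em 590 nm) against green monomers (ex 490/em 535 nm). Compound treatment 1 hr at 37C, dye 30 min in HepG2.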

[4] = target: Aryl hydrocarbon receptor (Homo sapiens) (UniProt P35869); assay: qHTS assay to identify small molecule that activate the aryl hydrocarbon receptor (AhR) signaling pathway (AID 743085);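 also: HG2L7.5c1 human HepG2 liver cells with stably integrated DRE-driven firefly reporter; % is scaled to controls: 0 for no effect and ±100 for the full control effect; nearly all actives have a fitted effect of over 15% in size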
Summary of the method: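 Steps: seed HepG2-AhR-luc cells; allow 5 h at 37C; pin-transfer test compound or vehicle; incubate 24 h at 37C; add viability dye (30 min, 37C) and read fluorescence; add luciferase substrate (30 min, RT) and read luminescence.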

[5] = target: Peroxisome proliferator-activated receptor gamma (Homo sapiens) (UniProt P37231); assay: qHTS assay to identify small molecule antagonists of the peroxisome proliferator-activated receptor gamma (PPARg) signaling pathway (AID 743191; calls by dose curve; also: % is scaled to controls: 0 for no effect and ±100 for the full control effect; nearly all actives have a fitted effect of over 30% in size); details: HEK293H PPARg-UAS-bla, beta-lactamase ratio, antagonist, 17 h; ratio activity, negative = inhibition: at 62.6 µM (top of the series) unless noted
Summary of the method: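 Beta-lactamase reporter under UAS control in HEK293H PPARg-bla cells; compound treatment 17 h at 37C. Read-out: fluorescence intensity after 1 h room-temperature incubation with LiveBLAzer B/G FRET substrate.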

[6] = target: Peroxisome proliferator-activated receptor delta (Homo sapiens) (UniProt Q03181); assay: qHTS assay to identify small molecule antagonists of the peroxisome proliferator-activated receptor delta (PPARd) signaling pathway (AID 743215; active = well fitted inhibition curve with a large enough effect in the signal ratio in the repeat runs, not every such curve was filed as active; inconclusive = weak or mixed curves, or effect the other way; inactive = no such curve, though single readings can be large or run the other way; the % refers to the signal ratio;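 also: cells stimulated with agonist L165041 at 300 nM final during compound exposure; % is scaled to controls: 0 for no effect and ±100 for the full control effect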); details: HEK293H PPARd-UAS-bla, beta-lactamase FRET ratio, antagonist, 17 h; ratio activity, negative = inhibition: at 62 µM (top of the series) unless noted
Summary of the method: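 Here, a reporter line (HEK293H, beta-lactamase under a UAS) measures PPARd signaling. Compounds are tested against agonist L165041 at 300 nM final concentration over 17 h at 37 C, with fluorescence read after substrate.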

[7] = target: Cytochrome P450 2C19 (Homo sapiens) (UniProt P33261); assay: Cytochrome P450 Family 2 Subfamily C Member 19 (CYP2C19) small molecule antagonists: luciferase reporter qHTS assay (AID 1671197); also: % is scaled to controls: 0 for no effect and ±100 for the full control effect; nearly all actives have a fitted effect of over 65% in size
Summary of the method: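 First, compounds are pinned into enzyme-substrate mix and held 10 min at room temperature. Second, NADPH regeneration solution is added and plates incubate 1 h at 37C. Third, detection reagent is added and luminescence read after 20 min.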

[8] = target: Cytochrome P450 2C9 (Homo sapiens) (UniProt P11712); assay: Cytochrome P450 Family 2 Subfamily C Member 9 (CYP2C9) small molecule antagonists: luciferase reporter qHTS assay (AID 1671198); also: % is scaled to controls: 0 for no effect and ±100 for the full control effect; nearly all actives have a fitted effect of over 50% in size
Summary of the method: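 Enzyme-substrate mix preincubated with compound 10 min at room temperature; reaction started with NADPH regeneration solution, 1 h 37C. Luminescent luciferin product read after 20 min detection reagent.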

[9] = qHTS assay to identify small molecule agonists of the estrogen related receptor (ERR) signaling pathway (AID 1224820); also: potency is read from the fitted curve at half-maximal effect
Summary of the method: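 After 6 h plating (2,000 cells/well) and 18 h compound treatment at 37 C, ERR cells were lysed with One-Glo and luminescence read after 30 min at room temperature.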

[10] = qHTS assay for identifying genotoxic compounds that show differential cytotoxicity against isogenic chicken DT40 cell lines with known DNA damage response pathways - wild type cell line (AID 743012); details: DT40 wild type chicken cells viability, CellTiter-Glo, 40 h; activity change, negative = cytotoxicity: at 68.4 µM (top of the series) unless noted; also: potency is read from the fitted curve at half-maximal effect; nearly all actives have a fitted effect of over 60% in size
Summary of the method: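 Viability of DNA repair-proficient chicken DT40 cells was assessed by CellTiter-Glo luminescence following 40 h compound exposure at 37 C/5% CO2.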

[11] = qHTS assay for identifying genotoxic compounds that show differential cytotoxicity against isogenic chicken DT40 cell lines with known DNA damage response pathways - Rad54/Ku70 mutant cell line (AID 743015); details: DT40 Rad54/Ku70 mutant viability, CellTiter-Glo, 40 h; activity change, negative = cytotoxicity: at 66.8 µM (top of the series) unless noted; also: potency is read from the fitted curve at half-maximal effect; nearly all actives have a fitted effect of over 60% in size
[12] = qHTS assay to identify small molecule antagonists of the androgen receptor (AR) signaling pathway using the MDA cell line - cell viability counter screen (AID 743041; also: potency is read from the fitted curve at half-maximal effect; nearly all actives have a fitted effect of over 45% in size); details: MDA-kb2 viability, CellTiter-Fluor, 16 h, cells co-treated with R1881 androgen agonist; viability change, negative = cytotoxic: at 70.3 µM (top of the series)
Summary of the method: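 Viability read by CellTiter-Fluor fluorescence in the same wells as the antagonist screen, added after 15.5 h of a 16 h, 37C exposure. Human breast carcinoma MDA-kb2 AR-luc cells, compounds co-dosed with agonist R1881.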

[13] = qHTS assay to identify small molecule antagonists of the thyroid receptor (TR) signaling pathway - cell viability counter screen (AID 743064); details: GH3.TRE-Luc viability, CellTiter-Fluor, 24 h; activity change, negative = cytotoxic: at 70.3 µM (top of the series) unless noted; also: potency is read from the fitted curve at half-maximal effect; nearly all actives have a fitted effect of over 50% in size
Summary of the method: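 Plate GH3.TRE-Luc cells; incubate 4 h at 37 °C; add compound, then T3 to 1 nM final; incubate 23.5 h; add CellTiter-Fluor; incubate 30 min at 37 °C, 5% CO2; read fluorescence.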

[14] = qHTS assay to identify small molecule antagonists of the thyroid receptor (TR) signaling pathway (AID 743065); also: potency is read from the fitted curve at half-maximal effect; nearly all actives have a fitted effect of over 55% in size
Summary of the method: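 Antagonism measured as loss of luciferase signal in GH3 cells stably carrying a TRE-luciferase reporter, co-treated with compound and T3 (1 nM final) for 23.5 h at 37 C. Viability was read in the same well by CellTiter-Fluor.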

[15] = qHTS assay to identify small molecule antagonists of the estrogen receptor alpha (ER-alpha) signaling pathway using the BG1 cell line - cell viability counter screen (AID 743081); details: BG1Luc4E2 viability, CellTiter-Fluor, 22 h; activity change, negative = cytotoxicity: at 70.3 µM (top of the series) unless noted;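 also: compound given together with 17beta-estradiol as the ER stimulus; potency is read from the fitted curve at half-maximal effect; nearly all actives have a fitted effect of over 45% in size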
[16] = qHTS assay to identify aromatase inhibitors - cell viability counter screen (AID 743084); details: MCF-7 aro ERE viability, CellTiter-Fluor, 24 h; activity change, negative = cytotoxicity: at 70.3 µM (top of the series) unless noted;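 also: cells stimulated with testosterone during compound exposure; potency is read from the fitted curve at half-maximal effect; nearly all actives have a fitted effect of over 55% in size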
[17] = target: Nuclear receptor subfamily 1 group I member 2 (Homo sapiens) (UniProt O75469); assay: Human pregnane X receptor (PXR) activation by small molecules, qHTS assay (AID 1346985); also: potency is read from the fitted curve at half-maximal effect; nearly all actives have a fitted effect of over 40% in size
Summary of the method: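 DPX-2 cells (HepG2 co-transfected with a PXR response element and a CYP3A4-promoter luciferase construct) were seeded at 2,000 per well, rested 5 hr at 37C, then exposed to DMSO-dissolved compounds for 24 hr. Activation was read as luciferase luminescence.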
Tags tell the direction and shape of the fitted curve or compound fluorescence and quenching.

Sequence of UniProt P33261 (P33261 whole entry, looked up): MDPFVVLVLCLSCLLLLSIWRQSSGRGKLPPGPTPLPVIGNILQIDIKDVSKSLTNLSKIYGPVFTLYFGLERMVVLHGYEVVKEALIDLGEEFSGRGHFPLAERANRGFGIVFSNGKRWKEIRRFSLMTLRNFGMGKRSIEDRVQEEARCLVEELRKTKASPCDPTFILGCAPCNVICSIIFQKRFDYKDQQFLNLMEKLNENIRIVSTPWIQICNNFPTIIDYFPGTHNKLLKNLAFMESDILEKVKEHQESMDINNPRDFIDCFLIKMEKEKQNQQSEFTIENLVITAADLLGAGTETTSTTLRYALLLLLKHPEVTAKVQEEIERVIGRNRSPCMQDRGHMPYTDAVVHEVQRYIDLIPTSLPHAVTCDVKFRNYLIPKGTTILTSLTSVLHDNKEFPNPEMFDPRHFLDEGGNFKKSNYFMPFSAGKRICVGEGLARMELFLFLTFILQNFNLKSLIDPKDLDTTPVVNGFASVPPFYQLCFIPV
Sequence of UniProt P37231 (P37231 whole entry, looked up): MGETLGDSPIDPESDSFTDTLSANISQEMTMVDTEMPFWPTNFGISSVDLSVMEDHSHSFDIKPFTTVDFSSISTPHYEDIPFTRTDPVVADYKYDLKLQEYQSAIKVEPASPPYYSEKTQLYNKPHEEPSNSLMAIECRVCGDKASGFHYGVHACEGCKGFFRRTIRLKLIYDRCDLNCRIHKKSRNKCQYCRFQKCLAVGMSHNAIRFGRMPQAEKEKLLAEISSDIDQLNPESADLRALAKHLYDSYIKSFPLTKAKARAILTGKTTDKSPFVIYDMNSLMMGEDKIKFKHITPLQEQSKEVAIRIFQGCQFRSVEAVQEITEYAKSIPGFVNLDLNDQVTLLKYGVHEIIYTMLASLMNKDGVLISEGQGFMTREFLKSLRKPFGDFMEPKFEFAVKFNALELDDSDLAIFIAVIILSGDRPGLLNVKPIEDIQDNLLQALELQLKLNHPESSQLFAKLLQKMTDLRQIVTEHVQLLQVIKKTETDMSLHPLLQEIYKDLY
Sequence of UniProt P11712 (P11712 whole entry, looked up): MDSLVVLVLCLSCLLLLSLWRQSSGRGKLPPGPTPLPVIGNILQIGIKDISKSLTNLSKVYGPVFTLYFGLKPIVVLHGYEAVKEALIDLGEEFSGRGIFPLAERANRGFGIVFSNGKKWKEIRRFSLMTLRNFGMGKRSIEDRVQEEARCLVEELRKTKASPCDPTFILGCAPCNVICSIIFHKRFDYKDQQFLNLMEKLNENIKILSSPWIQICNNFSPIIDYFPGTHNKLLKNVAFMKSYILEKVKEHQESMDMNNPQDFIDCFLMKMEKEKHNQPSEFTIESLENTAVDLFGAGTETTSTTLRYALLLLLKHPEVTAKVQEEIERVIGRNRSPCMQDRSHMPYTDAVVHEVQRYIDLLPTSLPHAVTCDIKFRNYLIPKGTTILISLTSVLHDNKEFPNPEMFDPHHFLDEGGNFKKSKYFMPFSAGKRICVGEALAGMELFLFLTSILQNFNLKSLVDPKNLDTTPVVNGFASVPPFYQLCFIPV
Sequence of UniProt P35869 (P35869 whole entry, looked up): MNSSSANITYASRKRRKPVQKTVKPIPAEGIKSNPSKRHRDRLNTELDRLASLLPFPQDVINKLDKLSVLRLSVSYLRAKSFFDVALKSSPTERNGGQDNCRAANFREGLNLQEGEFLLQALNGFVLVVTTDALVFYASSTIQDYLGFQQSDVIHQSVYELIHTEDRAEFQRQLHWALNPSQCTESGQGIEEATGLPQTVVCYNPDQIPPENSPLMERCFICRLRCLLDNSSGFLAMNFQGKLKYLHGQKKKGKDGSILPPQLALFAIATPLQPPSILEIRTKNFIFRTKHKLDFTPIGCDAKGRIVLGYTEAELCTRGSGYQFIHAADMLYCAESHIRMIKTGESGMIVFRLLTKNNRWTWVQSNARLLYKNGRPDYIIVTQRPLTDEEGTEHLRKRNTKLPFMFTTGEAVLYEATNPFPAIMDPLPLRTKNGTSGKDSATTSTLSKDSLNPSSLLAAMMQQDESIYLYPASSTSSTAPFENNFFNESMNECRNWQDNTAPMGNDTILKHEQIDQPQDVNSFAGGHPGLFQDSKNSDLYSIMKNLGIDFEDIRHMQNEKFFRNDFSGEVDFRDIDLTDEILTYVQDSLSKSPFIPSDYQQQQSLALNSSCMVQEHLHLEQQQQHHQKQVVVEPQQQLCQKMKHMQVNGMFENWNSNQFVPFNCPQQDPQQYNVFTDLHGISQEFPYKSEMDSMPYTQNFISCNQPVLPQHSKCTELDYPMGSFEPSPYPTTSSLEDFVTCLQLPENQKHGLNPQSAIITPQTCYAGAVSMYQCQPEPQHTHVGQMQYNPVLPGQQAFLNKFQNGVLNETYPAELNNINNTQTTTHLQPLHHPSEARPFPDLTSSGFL
Sequence of UniProt Q03181 (Q03181 whole entry, looked up): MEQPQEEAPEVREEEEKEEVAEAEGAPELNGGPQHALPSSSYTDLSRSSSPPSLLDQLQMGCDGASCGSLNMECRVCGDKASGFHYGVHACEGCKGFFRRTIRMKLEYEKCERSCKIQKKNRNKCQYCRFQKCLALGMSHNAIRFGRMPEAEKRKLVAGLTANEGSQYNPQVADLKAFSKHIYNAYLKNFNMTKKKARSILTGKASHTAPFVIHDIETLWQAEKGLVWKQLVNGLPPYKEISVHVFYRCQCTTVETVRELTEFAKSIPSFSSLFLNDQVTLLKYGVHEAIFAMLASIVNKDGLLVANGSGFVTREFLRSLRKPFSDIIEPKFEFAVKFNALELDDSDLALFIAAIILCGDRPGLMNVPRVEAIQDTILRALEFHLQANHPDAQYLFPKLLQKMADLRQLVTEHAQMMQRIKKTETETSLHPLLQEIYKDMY

In the case of `Nc1c(S(=O)(=O)O)cc(Nc2ccc(Nc3nc(Cl)nc(Nc4ccc(S(=O)(=O)O)cc4)n3)c(S(=O)(=O)O)c2)c2c1C(=O)c1ccccc1C2=O`, the Potency [1] is reported as inconclusive [inhibitor] and the Potency [2] is reported as inconclusive [cytotoxic].

With `O=C(O)CN(CCOCCOCCN(CC(=O)O)CC(=O)O)CC(=O)O` the Potency [3] was inconclusive [inhibitor, single point], the Potency [4] was “inactive” and the ratio activity, negative = inhibition [5] was inactive: -4.72% [at 0.55 µM]. The ratio activity, negative = inhibition [6] was inactive: 6.3% [at 0.575 µM], the Potency [1] was “inactive” and the activity change, negative = inhibition [7] was inactive: -11.6% [at 0.435 µM]. The activity change, negative = inhibition [8] was inactive: 4.56% [at 0.435 µM].

In the case of `C[C@](Cc1ccc(O)c(O)c1)(NN)C(=O)O`, the Potency [9] is reported as inconclusive [activator, partial curve, poor fit].

With `NC(=Nc1ccccc1)NC(=O)c1nc(Cl)c(N)nc1N` the Potency [9] was inconclusive [activator].

In the case of `CN1[C@@H](CC(=O)c2ccccc2)CCC[C@H]1C[C@H](O)c1ccccc1`, the Potency [10] is reported as active: 26.6 µM, the Potency [11] is reported as inconclusive [cytotoxic] and the Potency [12] is reported as inconclusive [cytotoxic, partial curve, poor fit]. For the same compound, the Potency [13] was inconclusive [cytotoxic, partial curve, poor fit], the Potency [14] was inconclusive [inhibitor, partial curve] and the Potency [15] was inconclusive [cytotoxic, partial curve]. The Potency [16] was inconclusive [cytotoxic, partial curve, poor fit], the Potency [1] was “inactive” and the Potency [2] was “inactive”. For the same compound, the Potency [17] was inconclusive [activator, single point].

With `COc1cccc(OC)c1OCCNCC1COc2ccccc2O1` (configuration not stated) the Potency [1] was inconclusive [inhibitor] and the Potency [2] was “inactive”.

In the case of `Cc1cccc(C2CN(C)CCc3c2cc(O)c(O)c3Cl)c1` (configuration not stated), the Potency [1] is reported as inconclusive [inhibitor, single point] and the Potency [2] is reported as inconclusive [cytotoxic].

With `CCCCCCCCCCC(C)(C)C(=O)Nc1c(OC)cc(OC)cc1OC` the Potency [1] was inconclusive [inhibitor] and the Potency [2] was “inactive”.

— PubChem BioAssay (Tox21)
